# About 14,000 (4.5%) of roughly 310,000 compounds showed an effect of 50% or more. The effect is printed as a negative number. Some of the results follow.
# Target: human ether-à-go-go-related gene (hERG) potassium channel (human, UniProt Q12809)
# Assay: primary screen, population patch clamp on CHO cells stably expressing hERG
# 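Note: peak tail current of the secondary pulse compared with the same well before compound.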
# human ether-à-go-go-related gene (hERG) potassium channel, sequence (Q12809 whole entry, looked up): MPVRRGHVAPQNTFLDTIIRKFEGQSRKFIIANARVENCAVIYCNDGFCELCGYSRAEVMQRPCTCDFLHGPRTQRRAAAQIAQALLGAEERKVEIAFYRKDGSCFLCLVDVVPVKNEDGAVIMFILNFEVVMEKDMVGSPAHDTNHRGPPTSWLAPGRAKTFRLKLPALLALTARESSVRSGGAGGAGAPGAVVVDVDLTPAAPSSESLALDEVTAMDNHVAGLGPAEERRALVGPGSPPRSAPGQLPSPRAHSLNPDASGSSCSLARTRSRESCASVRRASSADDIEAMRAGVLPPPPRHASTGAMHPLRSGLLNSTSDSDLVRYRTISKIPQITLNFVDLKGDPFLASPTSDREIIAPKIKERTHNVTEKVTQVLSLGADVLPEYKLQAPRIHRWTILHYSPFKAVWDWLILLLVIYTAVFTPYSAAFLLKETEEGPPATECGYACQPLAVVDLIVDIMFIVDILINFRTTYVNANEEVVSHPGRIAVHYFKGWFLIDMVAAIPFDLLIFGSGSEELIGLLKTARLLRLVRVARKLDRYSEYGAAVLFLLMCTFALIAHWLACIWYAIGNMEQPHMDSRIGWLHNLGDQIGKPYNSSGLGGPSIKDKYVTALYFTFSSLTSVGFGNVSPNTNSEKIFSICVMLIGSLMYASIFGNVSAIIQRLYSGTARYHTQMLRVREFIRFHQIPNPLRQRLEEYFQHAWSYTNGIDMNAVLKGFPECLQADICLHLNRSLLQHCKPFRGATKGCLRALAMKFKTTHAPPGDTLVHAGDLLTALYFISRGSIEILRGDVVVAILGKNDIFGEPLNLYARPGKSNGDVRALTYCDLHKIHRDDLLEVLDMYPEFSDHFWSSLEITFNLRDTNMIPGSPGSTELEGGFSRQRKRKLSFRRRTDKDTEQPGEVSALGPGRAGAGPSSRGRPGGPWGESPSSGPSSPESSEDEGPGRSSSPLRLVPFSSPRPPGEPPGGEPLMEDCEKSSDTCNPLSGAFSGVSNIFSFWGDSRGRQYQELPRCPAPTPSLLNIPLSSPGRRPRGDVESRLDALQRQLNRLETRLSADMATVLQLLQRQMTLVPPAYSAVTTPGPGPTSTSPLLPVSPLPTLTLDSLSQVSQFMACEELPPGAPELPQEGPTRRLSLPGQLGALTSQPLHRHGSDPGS
row,SMILES,"hERG current change (%, negative = inhibition) at 10uM"
1,CCn1c(N2CCN(C(=S)NCC(C)C)CC2)nc2ccccc21,-30.4%
2,O=C(Nc1cccc(S(=O)(=O)N2CCCCC2)c1)c1ccc([N+](=O)[O-])o1,-51.4%
3,O=C(CCC(=O)c1cccs1)NCc1ccccc1,1.91%
4,Cc1nc(Nc2nc3ccccc3o2)nc(C)c1C,10.3%
5,C=CCOc1ccccc1/C=C/C(=O)O,-4.13%
6,CCC1(C)Cc2ccccc2-c2c1c(=O)n(-c1ccc(C)cc1)c1nnnn21 (stereo not drawn),2.8%
7,Fc1ccccc1-c1nc(NCCCN2CCOCC2)c2ccccc2n1,-45.9%
8,Cc1cc2c(cc1C)N(C(=O)CSc1nncn1C)C(C)(C)c1ssc(=S)c1-2,-35.7%
9,Cc1cccc(OCC(=O)Nc2ccc(C(=O)Nc3ccccc3C(=O)O)cc2)c1C,-7.2%
10,NC(=O)N=Nc1c(O)n(Cc2ccccc2)c2ccc(Br)cc12,-9.32%
11,Cc1ccc(N(CC(=O)NCC2CCCO2)C(=O)CCC(=O)Nc2ccccn2)cc1 (stereo not drawn),6.62%
12,CCCCc1n[nH]c(=S)n1Cc1ccc(Cl)cc1,-30.2%
13,CCCNc1nc(N2CCOCC2)nc(N2CCOCC2)n1,-2.88%
14,CCc1ccccc1NC(=O)Nc1ccc(F)cc1F,7.78%
15,COc1ccc(S(=O)Cc2ccc(C(=O)NC3CC3)o2)cc1 (stereo not drawn),10.1%
16,Brc1ccc(N=Nc2ccc3ccccc3n2)cc1,4.03%
17,COc1ccccc1C(=O)COC(=O)c1ccc(Cl)nc1,-37.3%
18,CC1CCCCC12NC(=O)N(CC(=O)NCCc1ccc(F)cc1)C2=O (stereo not drawn),-19.7%
19,Cc1ccc2[nH]c(=O)c3cc(C(=O)N4CCN(C(=O)c5ccco5)CC4)sc3c2c1,-21.6%
20,CC(c1ccccc1)n1cc(C(=O)NCc2ccccn2)nn1 (stereo not drawn),4.98%
21,O=C(CSc1nnc2ccc3ccccc3n12)N1CCOCC1,-10.5%
22,COC(=O)CC(c1ccccc1F)N1Cc2ccccc2C1=O (stereo not drawn),0.449%
23,Cc1nnnn1/C(=C\c1ccccc1)C(=O)OCC(=O)NC(C)(C)C,-2.84%

row,SMILES,"hERG current change (%, negative = inhibition) at 10uM"
1,COc1ccc(CCCC(=O)N/N=C/c2cccc(OC)c2O)cc1C,-4.91%
2,COc1ccc(CCNC(=O)CSc2nnc(Cn3c(=O)sc4ccccc43)n2C)cc1OC,-11.1%
3,COc1ccc2nc3oc(C(=O)NCCCOC(C)C)cc3cc2c1,-0.766%
4,Oc1ccc(Br)cc1-c1cc(-c2ccco2)[nH]n1,11.9%
5,CCOc1ccc2nc(SCC(=O)NCc3ccc(OC)cc3)[nH]c2c1,-17.8%
6,CC1(C)Cc2c(cnn2-c2ccccc2)C(NC(=O)CCCN2CCCC2=O)C1 (stereo not drawn),3.86%
7,Cn1nccc1NC(=O)Nc1cccc(Cl)c1Cl,16.5%
8,CCOC(=O)CSc1ncnc2c1c(-c1ccccc1)cn2-c1ccc(OC)cc1,6.55%
9,CC(=O)CSc1nnc(NC(=O)CCc2ccccc2)s1,7.09%
10,CCn1c(Sc2nc(C)nc3scc(-c4cccs4)c23)n[nH]c1=O,-9.39%
11,COc1ccc2cc(C(=O)NCCO)sc(=O)c2c1OC,-3.69%
12,COc1ccc(OC)c(C(=O)NC(CC(N)=O)c2ccc(NCCN3CCOCC3)c([N+](=O)[O-])c2)c1 (stereo not drawn),6.63%
13,COc1cc(/C=C2\SC(=S)N(NC(=O)c3ccc(O)cc3)C2=O)ccc1O,10.8%
14,CCn1ccc(C(=O)Nc2ccsc2C(=O)OC)n1,-10.8%
15,Cc1ccc(-c2cc(C(=O)NCC3CCCO3)no2)cc1 (stereo not drawn),-0.728%
16,CCOC(=O)c1cnc2ccc(OC)cc2c1NCCc1ccc(OC)c(OC)c1,-76.6%
17,CC1(NC(=O)c2cc(Cl)nc3ccccc23)CCS(=O)(=O)C1 (stereo not drawn),7.55%
18,Cn1c(SCC(=O)N2c3ccccc3Sc3ccccc32)nnc1-c1ccco1,-28.1%
19,O=C(CCCn1c(=O)c2sccc2n(CC(=O)NCC2CCCO2)c1=O)NCc1ccco1 (stereo not drawn),6.73%
20,COc1ccc2cc3cc(C(=O)NCc4ccco4)oc3nc2c1,-9.75%
21,O=C(C1CC(=O)N(c2ccc(F)cc2)C1)N1CCCCC1 (stereo not drawn),-0.378%
22,O=C(c1cc([N+](=O)[O-])ccc1Cl)N1CCc2ccccc21,-19.9%
23,CC1(C)Cc2c(sc3c2c(N)nc(=S)n3Cc2ccc(Br)cc2)CO1,-27.2%

row,SMILES,"hERG current change (%, negative = inhibition) at 10uM"
1,CSc1nc2ccc(NS(=O)(=O)c3ccccc3F)cc2s1,1.47%
2,Cc1ccc(N(Cc2ccccc2)C(=O)c2ccc(S(=O)(=O)N3CCOCC3)cc2)cc1,-28.5%
3,CCOC(=O)c1nnsc1-c1ccc(-c2snnc2C(=O)OCC)cc1,-6.1%
4,O=C(NCN1CCN(c2ccccc2)CC1)c1cnccn1,19.4%
5,CCCN(Cc1ccco1)S(=O)(=O)c1ccc(OC)c(OC)c1,0.00658%
6,COCCN1CN=C(Nc2nc3ccccc3s2)NC1,-8.77%
7,COc1ccc(NC(=O)COC(=O)Cn2nnc3ccccc32)cc1,8.35%
8,CCNCc1cc(Br)c(OCC(=O)Nc2ccccc2)c(OC)c1.Cl,-19.8%
9,CCOC(=O)Cc1cc(=O)[nH]c(/N=C(\N)Nc2ccc(C)cc2C)n1,7.25%
10,Cc1ccc(NC(=O)Cc2csc(-c3ccccc3)n2)cc1F,0.0343%
11,Cc1nc(N)sc1C(=O)N/N=C/c1c[nH]c2ccccc12,-1.81%
12,CCC1=C(OC(=O)N(CC)CC)N2C(=O)OC(=NCC3CC3)[C@]2(Cc2ccccc2)[C@H]2C1=CC[C@H]1C(=O)N(C)C(=O)[C@H]12,-17.7%
13,COc1ccc(N2CCN(C(=O)CCCCCn3c(=S)[nH]c4cc5c(cc4c3=O)OCO5)CC2)cc1,19.3%
14,COc1ccc(-n2nnnc2SCC#CCO)cc1,-17.2%
15,CCCCN(C(=O)c1nn(C)c(=O)c2ccccc12)c1c(N)n(CCC)c(=O)[nH]c1=O,-1.19%
16,COc1ccc(N(CC(=O)NCc2ccc3c(c2)OCO3)S(=O)(=O)c2ccccc2[N+](=O)[O-])c(OC)c1,-29.1%
17,O=C(c1ccncc1)N1CCc2ccccc2C1,-1.35%
18,CC(C)C(NC(=O)c1ccc(F)cc1)C(=O)Nc1cccnc1 (stereo not drawn),0.585%
19,O=C(CCn1c(=O)sc2ccccc21)NCCN1CCOCC1,-4.66%
20,CC(C)c1nc(SCC(=O)NC2CCCCC2)c2ccccc2n1,14.6%
21,CCN1CCN(CC(=O)n2c3c(c4ccccc42)CC(C)CC3)CC1 (stereo not drawn),-23.9%
22,COc1cc(/C=C2\C(=O)ON=C2c2ccccc2)cc(OC)c1OC,25.6%
23,O=C(Nc1cccs1)N1CCN(c2ncccn2)CC1,7.18%

row,SMILES,"hERG current change (%, negative = inhibition) at 10uM"
1,O=C(COc1ccc(S(=O)(=O)N2CCOCC2)cc1)NCCCn1ccnc1,-17.3%
2,Cc1ccc(OCCC(=O)OCC(=O)N2CC(=O)Nc3ccccc32)cc1,4.57%
3,O=C(NCc1ccc2c(c1)OCO2)c1cc(COc2c(F)cccc2F)on1,-4.93%
4,c1ccc(-c2cc3c(NCC4COc5ccccc5O4)ncnc3s2)cc1 (stereo not drawn),10.6%
5,O=C1/C(=C/N(C(=O)c2ccco2)c2ccc(Br)cc2)Sc2ccccc21,-7.76%
6,Cc1ccc(CNC(=O)CS(=O)Cc2nc(-c3cccs3)oc2C)cc1 (stereo not drawn),-30.3%
7,COC(=O)c1ccc(CSc2nc3ccccc3c(=O)n2-c2cccc(OC)c2)o1,12.8%
8,O=C(/C=C/c1ccccc1)N(Cc1cccs1)C1CCS(=O)(=O)C1 (stereo not drawn),-30.3%
9,COc1ccccc1CN1C(=O)[C@@H]2C(CC(N)=O)NC3(C(=O)Nc4c3ccc(Cl)c4C)[C@@H]2C1=O (stereo partly drawn),-4%
10,C=CCn1c(-c2cccs2)nc2ccccc21,3.12%
11,O=C(Nc1ccccc1)OCc1ccccn1,10.8%
12,Cc1cccc(OCc2nnc(SC(C)C(=O)O)n2Cc2ccccc2)c1 (stereo not drawn),12.5%
13,O=C(CSc1nnnn1-c1ccc2c(c1)OCO2)NCc1ccccc1,-16.9%
14,CC(C)CNC(=O)C1CCCN1S(=O)(=O)c1ccc(Cl)cc1 (stereo not drawn),1.04%
15,Cc1ccc(OCc2nnc(SCC(=O)N3c4ccccc4Sc4ccc(Cl)cc43)o2)cc1,6.06%
16,COc1ccc(NC(=O)CN(C)CC(=O)Nc2ccc(Cl)cc2F)cc1,-10.6%
17,CN(Cc1nccs1)C(=O)c1cc(COc2cccc3cnccc23)on1,-6.13%
18,COc1cccc(C(O)CC(N)=O)c1 (stereo not drawn),-0.0887%
19,O=C(O)C1CC(O)CN1C(=S)Nc1ccccc1 (stereo not drawn),24.1%
20,C=C(C)C1CC=C(C)/C(=N/NC(=O)c2ccoc2C)C1 (stereo not drawn),-15.5%
21,CC(Cc1ccc(O)c(O)c1)C(C)Cc1ccc(O)c(O)c1 (stereo not drawn),9.42%

# — PMC4336329 (PLoS ONE, 2015)
